Test results as given in PubChem BioAssay (NCI).
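Method: 48-hour compound exposure of cells in 96-well plates, five concentrations, linear interpolation of endpoints. GI50: concentration for 50% inhibition of growth. TGI is the concentration that stops growth completely.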

Test system: NCI-H322M lung
Assay: growth of human tumour cells (NCI), 48 h

SMILES | TGI | GI50
O=C1C2C3C=CC(C2C(=O)N1COP(=O)(O)O)C1C2C(=O)N(COP(=O)(O)O)C(=O)C2C31 (stereo unspecified) | > 100 µM | 
COc1cc(C2=C(C#Cc3ccccc3)COC2=O)cc(OC)c1OC | > 100 µM | 18.5 µM
COc1ccc2sc(-n3nc4ccccc4c3Nc3nc4ccc(OC)cc4s3)nc2c1 | 7.83 µM | 
Cc1cccnc1/N=C/c1c(O)n(C)c(=O)[nH]c1=O | > 100 µM | 
CN(C)c1nncc2[nH]cnc12 | > 100 µM | 
CC(=O)c1ccc(NC(=O)C(=O)Nn2c(=S)[nH]c3ccccc3c2=O)cc1 | > 100 µM | 
COc1cc(OC)c(/C=C/c2cnc3ccccc3n2)c(OC)c1 | > 10 µM | 
C[C@]1(CO)CCC[C@@]2(C)C1CC[C@H]1CC3C[C@]12CC[C@]3(C)O (stereo partly specified) | > 100 µM | 
COC(=O)c1c(N)n[nH]c1N | > 100 µM | 
COc1ccc(-c2nc3ccccn3c2/C=C/C(=O)c2cc(OC)c(OC)c(OC)c2)cc1 | > 100 µM | 4.63 µM
CCOC(=O)C1OC(C2(C)OC3(OC4(C=CC3O)OC(C(C)C(=O)C(C)C(O)C(C)CC(C)c3c(Cl)cc(C)c(O)c3C(=O)O)C(C)CC4C)C(C)C2OC)CC1O (stereo unspecified) | 6.22 µM | 
O=C1CCCC/C1=C\c1ccc(Br)cc1 | 42 µM | 
Nc1[nH]c(=S)nc2snnc12 | > 100 µM | 
Cc1c2cnccc2c(C)c2c1c1ccccc1n2CCCCCCNCc1ccccc1 | 2.75 µM | 
S=c1cc(S)sc2c1c(=S)sc1nc3ccccn3c(=S)c12 | > 100 µM | 
NCCCNC1(c2cc3ccccc3s2)CCCCC1 | 21.1 µM | 
CCOC(=O)C(Cl)(NC(=O)c1c(F)c(F)c(F)c(F)c1F)C(F)(F)F (stereo unspecified) | > 100 µM | 
CCC(=O)c1c(NOC2OC(COC(C)=O)C(OC(C)=O)C(OC(C)=O)C2OC(C)=O)nc(OC)n(C)c1=O (stereo unspecified) | > 100 µM | 
O=C/C=C/c1ccco1 | > 100 µM | 
c1csc(-c2cc(-c3cccs3)c(-c3cccs3)s2)c1 | > 100 µM | 
CC(=O)OC(CCC1(C)OC1COc1ccc(CCNC(=O)c2ccccc2)cc1)C(C)(C)OC(C)=O (stereo unspecified) | > 100 µM | 
Cc1c(COc2cc(OCc3cccc(C#N)c3)c(CN3C[C@H](O)C[C@@H]3C(=O)O)cc2Cl)cccc1-c1ccc2c(c1)OCCO2 | 29.2 µM | 15.5 µM
CCCCCCCCCc1cccc(N2C(N)=NC(N)=NC2(C)C)c1 | 3.33 µM | 
CCc1ccc2nc(-c3ccc(O)cc3)sc2c1 | 38.3 µM | 
CCCCNC(=S)Nc1nc(C(=O)NNC(=S)NC2CCCCC2)cs1 | > 100 µM | 

SMILES | TGI | GI50
Cc1ccc(OC2CC(n3cnc4ncnc(Cl)c43)OC2Oc2ccc(C)cc2)cc1 (stereo unspecified) | 51.5 µM | 
CN(C)c1ccc(C(Cc2ccc3ccccc3n2)Cc2ccc3ccccc3n2)cc1 | > 100 µM | 6.28 µM
CCOC(=O)C(C(=S)Nc1ccccc1)c1nn2c(=O)cc(C)nc2s1 (stereo unspecified) | 52.2 µM | 
CC(=O)O[C@@H]1C2=C(C)C=C(O2)[C@H]2O[C@]2(C)C[C@H]2C=C(C(=O)O2)[C@H](OC(C)=O)CC1[C@@]1(C)CO1 (stereo partly specified) | > 100 µM | 
O=[N+]([O-])c1cccc(-c2oc(C=Nc3ccccc3)c([N+](=O)[O-])c2-c2cccc([N+](=O)[O-])c2)c1 | > 100 µM | 
CC(C)CCN=C(N)c1ccc(N2CCN(c3ccc(C(N)=NCCC(C)C)cc3)CC2)cc1 | 37.2 µM | 15 µM
Cn1c(-c2ccccc2)cc2c3ccsc3c3ccsc3c21 | > 100 µM | 
COc1ccc2oc(OC)c(CC=C(C)C)c(=O)c2c1C | > 100 µM | 
Nc1nc(-c2ccc(F)cc2)c(-c2ccc3ncccc3n2)s1 | > 25 µM | 13.1 µM
COC(=O)C1=C(C)NC(C)=C(C(=O)OC)C1/C=C(Cl)/C=C/c1ccccc1 | > 100 µM | 30.5 µM
COC(=O)CCCC(=O)O | > 100 µM | 
N#CCCC1(CCC#N)CCCCCCCCC(CCC#N)(CCC#N)C(=O)C1=O | > 100 µM | 
O=C1/C(=C/c2cccc(Br)c2)CSC/C1=C\c1cccc(Br)c1 | 22.3 µM | 
Nc1nc(-c2ccccc2)nc2c1[n+]([O-])c1ccccc1[n+]2[O-] | > 100 µM | 
CN(C)c1ccccc1CN1CCCN(Cc2ccccc2N(C)C)C1c1ccncc1 | 25.3 µM | 
O=C1/C(=C/c2ccccc2O)N=C(c2ccccc2)N1c1nc2ccccc2s1 | > 100 µM | 
Cc1ccc(O)c(-c2cc(-c3cccc(Cl)c3)c(C#N)c(N)n2)c1 | 97.6 µM | 
O=C(CCCCCCC(=O)Nc1cccnc1)NO | > 100 µM | 
O=c1[nH]c(Nc2cc(Cl)cc(Cl)c2)nc2nc[nH]c12 | > 75 µM | 
CN1CCC(CN2c3ccccc3Sc3ccccc32)CC1 | 28 µM | 
CCc1cccc(C(C)C)c1NC(=O)C(=O)C(CC(=O)Nc1ccc(Cl)c(Cl)c1)C(=O)OC (stereo unspecified) | > 100 µM | 
Cc1cc(C)nc(NS(=O)(=O)c2ccc(Nc3c4ccc(Cl)cc4nc4c(C(=O)Nc5ccc(S(N)(=O)=O)cc5)cccc34)cc2)n1 | 64 µM | 
O=C(O)c1cn2c3c(cc(N4CCN(CCO)CC4)cc3c1=O)SCC2 | > 100 µM | 
CCCCCCCCCCCCCC[S+](C)C | > 10 µM | 
COC(=O)C1CCC(=O)N1C(c1ccc(OC)cc1)c1ccc(OC)cc1 (stereo unspecified) | > 100 µM | 

SMILES | TGI | GI50
N#C/C(=C\NC(=S)c1ccncc1)c1nc2ccccc2s1 | > 100 µM | 
CN(C)c1ccc(Nc2cc(-c3cccc(OC(F)(F)F)c3)nc3ccc(N4CCCC4)cc23)cc1 | 4.12 µM | 1.97 µM
CCOC(=O)c1ccc(C(=O)/C(C(C)=O)=C2\CCCN2C)n1C | > 100 µM | 
O=C(/C=C/c1cc([N+](=O)[O-])ccc1Cl)c1ccccc1 | > 100 µM | 26.9 µM
Cc1cccc2c(=O)c3c(sc12)c(NCCNCCO)nc1ccccc13 | 2.92 µM | 1.53 µM
Nc1nc(Cl)cc(NCCC2(CO)CCC2)n1 | > 100 µM | 
COc1ccc(OC)c(CC2CCc3nc(N)nc(N)c3C2)c1 (stereo unspecified) | > 100 µM | 
Cc1cc(Cc2c(F)c(F)c(C(c3cc(C)no3)c3c(F)c(F)c(F)c(F)c3F)c(F)c2F)on1 (stereo unspecified) | > 100 µM | 
C/C(=C/C(=O)Nn1c(Cc2ccccc2)n[nH]c1=O)C(=O)O | > 100 µM | 
c1cc(CNCCN2CCNCC2)ccn1 | > 100 µM | 
Brc1ccc2c([C@H]3CN[C@@H](c4c[nH]c5cc(Br)ccc45)CN3)c[nH]c2c1 | 18.3 µM | 
CC(C)C(C)C(C)(C)P(C)(C)=O (stereo unspecified) | > 100 µM | 
COCOc1c(C(O[Si](C)(C)C(C)(C)C)c2cnc(Sc3ccccc3)n2C)ccc(OC)c1OC (stereo unspecified) | 7.57 µM | 
CN(C)CCNC(=O)c1cccc2c1nc(-c1ccccc1)c1ccccc12 | 17.5 µM | 
CSc1ccc(NC(=S)NN(C)C)cc1 | > 10 µM | 
CC1OC(O[C@H]2C3C=CO[C@@H](OC4OC(CO)C(O)C(O)C4O)C3[C@@]3(COC(=O)/C=C/c4ccc(O)cc4)O[C@@H]23)C(O)C(O)C1O (stereo partly specified) | > 100 µM | 
COc1cc(/C=C/C(=O)c2c(C)nc3ccccc3c2C)ccc1OCCCOc1cc2c(cc1OC)C(=O)N1CCC[C@H]1C=N2 | 0.5 µM | 0.074 µM
COC(=O)/C=C/c1ccc2c(c1)CC1(C2)Cc2cc3c(cc2C1=O)CCC3 (stereo unspecified) | > 100 µM | 
COc1ccc(/C=C2\N=C(c3ccccc3)N(N=C3NC(=O)CC(=O)N3)C2=O)cc1 | > 100 µM | 
CCC1CN2CCc3c([nH]c4ccccc34)C2C[C@@H]1CC(=O)N(C)C (stereo partly specified) | > 100 µM | 
CC[C@@H](C(=O)[C@@H](C)[C@@H](O)[C@H](C)[C@@H]1O[C@@H]([C@@H](CC)C(=O)N(CC)CC)CC[C@@H]1C)C1O[C@]2(C=CC(=O)[C@]3(CC[C@@](C)([C@H]4CC[C@](O)(CC)[C@H](C)O4)O3)O2)[C@H](C)C[C@@H]1C (stereo partly specified) | > 100 µM | 3.3 µM
CC1C2CC(C(S(=O)(=O)N3CCOCC3)/C2=N\O)C1(C)C (stereo unspecified) | > 100 µM | 
O=C(/C=C/c1ccc(O)c(O)c1)c1cc(O)cc(O)c1 | 28.6 µM | 
CCCCS(=O)(=O)CCC(N)C(=O)O (stereo unspecified) | > 100 µM | 
COC(=O)C1=C(O)C(C(=O)OC)[C@]2(O)[C@H](C(=O)OC)[C@H]1C[C@@H](c1c(Cl)cccc1Cl)[C@H]2C(=O)OC (stereo partly specified) | 18.4 µM | 

SMILES | TGI | GI50
C=C1CCC2C(C)(C)CCC[C@]2(C)[C@H]1CO (stereo partly specified) | > 100 µM | > 100 µM
COc1ccc(/C=C2\CCC(CNc3ccc(OC)cc3)C2=O)cc1 (stereo unspecified) | > 100 µM | 
CCNC(=O)c1cc2c(-c3cc(C(C)(C)O)ccc3Oc3c(C)cc(F)cc3C)cn(C)c(=O)c2[nH]1 | 14.9 µM | 1.71 µM
O=CC[C@H]1CCc2ccccc2C12CCC(=O)CC2 | > 100 µM | 
COC(=O)c1ccc(C)cc1/C=C1\Cc2ccc(C)cc2C1=O | 93.4 µM | 
Nc1nc(N)c2ncn(Cc3ccccc3CCl)c2n1 | > 100 µM | 
N#CCCN(CCC#N)c1ccc(/C=C2\N=C(c3ccccc3)N(NC(N)=S)C2=O)cc1 | > 100 µM | 
Cc1cc(Cl)ccc1NC(=O)c1cc2ccccc2cc1O | > 100 µM | 1.6 µM
Cc1occc1C(=S)Nc1ccc(Cl)c(C(=O)OC(C)C2CC2)c1 (stereo unspecified) | > 100 µM | 
COC1OC(COCc2ccc(Cl)cc2)C(OCc2ccc(Cl)cc2)C1N=[N+]=[N-] (stereo unspecified) | > 100 µM | 
C1=CC=C2NCCCNC3=CC=CC=CC3=NCCCN=C2C=C1 | > 100 µM | 
CCOC(=O)C(O)(NC(=O)c1ccccc1F)C(F)(F)F (stereo unspecified) | > 100 µM | 
CCOC(=O)C(=Cc1ccc(Oc2ccccc2)cc1)C(=O)OCC | 26.6 µM | 
CSc1c(C#N)c(N)nc2c(N=Nc3ccc(Cl)cc3)c(N)nn12 | 12.5 µM | 
Cc1ccc(S(=O)(=O)OCC23CCC(CC2)C2CC23)cc1 (stereo unspecified) | > 100 µM | 
O=c1oc2cc(O)ccc2c(O)c1C(c1cccnc1)c1c(O)c2ccc(O)cc2oc1=O | > 100 µM | 
CCOC(=O)c1c(N2CCCC2)[nH]c(=O)c(C(c2ccco2)c2c(O)c(C(=O)OCC)c(N3CCCC3)[nH]c2=O)c1O | > 100 µM | 
CC1OC2(CC(OCc3ccccc3)C1OCc1ccccc1)OCCO2 (stereo unspecified) | > 100 µM | 
O=S(=O)(O)ON=C1c2ccccc2-c2ccccc21 | > 100 µM | 
C#CC1(O)C(COP(=O)(O)OCC2OC(n3ccc(NCCCCCCCCCCCCCCCCCC)nc3=O)C(O)C2O)OC(n2ccc(N)nc2=O)C1O (stereo unspecified) | 20.8 µM | 
Fc1ccc2nc3n(c2c1)C(c1c(Cl)cccc1Cl)SC3 (stereo unspecified) | > 100 µM | 
Cn1/c(=N\S(=O)(=O)c2ccccc2)n(S(=O)(=O)c2ccccc2)c2ccccc21 | > 100 µM | 
O=C(Nc1ccccc1)NS(=O)(=O)c1ccc(-n2nc3c(c2-c2ccc(Cl)cc2)Cc2ccccc2-3)cc1 | > 100 µM | 25.3 µM
NCCCNCCCCN(CCCN)/[N+]([O-])=N\O | > 100 µM | 
Cc1ccc(-n2[nH]nc(C#N)c2=O)cc1 | > 100 µM | 
